Measurements reported in PubChem BioAssay AID1347165 (National Center for Advancing Translational Sciences (NCATS), 2019).
Among all 220,000 compounds or so, about 5,700 (2.6%) were called active. Inconclusive results, whose numbers are uncertain, are shown with a selection of clear calls. The call rests on the fitted dose curve; in most records, active means well fitted inhibition curve with a large enough effect; inconclusive means small, poorly fitted or top-dose-only effect; inactive means no such curve, though single readings can be large or run the other way. Potencies of inconclusive entries are doubtful fits and often do not repeat.

molecular target: Lysine-specific demethylase 5B (Homo sapiens) (UniProt Q9UGL1); experiment: Primary screen for KDM5B Histone Demethylases FDH-coupled qHTS; conditions: FDH-coupled NADH fluorescence (FDH is formaldehyde dehydrogenase); activity change, negative = inhibition: at 57.7 µM (top of the series) unless noted; further: nearly all actives have a fitted effect of over 70% in size; on activity change, negative = inhibition: 0% is about no effect
Outline: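 KDM5BΔAP (200 nM final) in 50 mM HEPES pH 7.5, 0.01% Tween-20 was preincubated 10 min at RT with compound over a concentration range. Substrate mix (H3K4me3 12.5 µM, α-KG 25 µM, Fe²⁺, ascorbate, NAD⁺, FDH) was added, and NADH fluorescence change over 30 min gave dose-response curves.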
Potency means the concentration at half of the fitted maximal effect; tags describe the fitted curve by direction and shape.

Sequence of UniProt Q9UGL1 (Q9UGL1 whole entry, looked up): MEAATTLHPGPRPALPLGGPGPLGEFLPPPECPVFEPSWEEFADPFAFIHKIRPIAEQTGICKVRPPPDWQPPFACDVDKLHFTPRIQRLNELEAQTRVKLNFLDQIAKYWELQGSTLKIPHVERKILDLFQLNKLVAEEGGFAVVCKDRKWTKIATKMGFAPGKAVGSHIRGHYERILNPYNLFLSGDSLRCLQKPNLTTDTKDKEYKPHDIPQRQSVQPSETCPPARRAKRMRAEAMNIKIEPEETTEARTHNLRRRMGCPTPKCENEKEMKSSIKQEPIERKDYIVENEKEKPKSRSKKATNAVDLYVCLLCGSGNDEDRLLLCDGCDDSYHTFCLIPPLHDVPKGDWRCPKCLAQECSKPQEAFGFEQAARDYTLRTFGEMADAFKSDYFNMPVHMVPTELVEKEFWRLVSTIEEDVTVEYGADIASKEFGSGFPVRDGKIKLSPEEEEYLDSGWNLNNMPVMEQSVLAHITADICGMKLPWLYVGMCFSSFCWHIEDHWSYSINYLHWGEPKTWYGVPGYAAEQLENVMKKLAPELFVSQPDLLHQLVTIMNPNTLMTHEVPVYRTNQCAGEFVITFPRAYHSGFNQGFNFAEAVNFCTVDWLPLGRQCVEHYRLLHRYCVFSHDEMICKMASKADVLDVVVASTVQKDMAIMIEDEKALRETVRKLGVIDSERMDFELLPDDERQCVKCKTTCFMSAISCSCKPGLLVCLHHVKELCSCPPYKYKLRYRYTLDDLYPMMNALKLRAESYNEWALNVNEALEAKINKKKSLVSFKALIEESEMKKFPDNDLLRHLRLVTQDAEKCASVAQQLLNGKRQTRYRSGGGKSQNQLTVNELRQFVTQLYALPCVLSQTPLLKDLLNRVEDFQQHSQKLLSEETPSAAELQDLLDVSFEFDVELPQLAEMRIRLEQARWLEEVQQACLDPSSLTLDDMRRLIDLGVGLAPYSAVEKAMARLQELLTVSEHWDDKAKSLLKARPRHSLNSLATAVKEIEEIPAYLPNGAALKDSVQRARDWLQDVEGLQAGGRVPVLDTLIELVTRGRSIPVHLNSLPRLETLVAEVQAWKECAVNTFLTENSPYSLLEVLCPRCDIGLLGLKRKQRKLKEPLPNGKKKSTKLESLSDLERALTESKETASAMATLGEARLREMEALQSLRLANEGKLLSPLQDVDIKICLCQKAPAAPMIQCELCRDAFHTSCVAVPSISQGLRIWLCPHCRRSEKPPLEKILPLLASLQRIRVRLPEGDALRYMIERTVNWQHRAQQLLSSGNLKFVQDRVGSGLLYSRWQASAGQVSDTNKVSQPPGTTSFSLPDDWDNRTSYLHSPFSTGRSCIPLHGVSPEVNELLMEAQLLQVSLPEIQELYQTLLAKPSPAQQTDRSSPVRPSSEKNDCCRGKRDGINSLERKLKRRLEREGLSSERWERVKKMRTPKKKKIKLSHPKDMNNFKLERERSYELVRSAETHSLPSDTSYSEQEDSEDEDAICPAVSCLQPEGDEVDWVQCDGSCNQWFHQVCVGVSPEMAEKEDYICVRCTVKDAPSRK

Compound | Potency | activity change, negative = inhibition
CCn1cc(-c2ccc(C)cc2)cc1C(=O)NCCN1CCOCC1 | inconclusive: 20 µM [inhibitor, partial curve, poor fit] | –
Cc1cccc(N2CCN(C(=O)C3c4ccccc4CC(=O)N3C)CC2)c1C (stereo unspecified) | inactive | –
O=C(O)CNC(=O)c1ccc(NC(=O)/C(=C/c2cccc([N+](=O)[O-])c2)NC(=O)c2ccco2)cc1 | inactive | –
CCN(CC)CCCNC(=O)CCC(=O)NNc1nc2ccccc2c2nc(C)nn12 | inconclusive: 15.8 µM [inhibitor, partial curve, poor fit] | –
Cc1ccc(C)c(-n2c3nc(=O)n(C)c(=O)c-3cc3ccccc32)c1 | inconclusive: 28.2 µM [inhibitor, partial curve, poor fit] | –
CCCn1cc2c(C(F)(F)F)cc(=O)n(CCC(=O)O)c2n1 | inconclusive: 25.1 µM [inhibitor, partial curve, poor fit] | –
O=Cc1ccc(OC(=O)CCCCC(=O)Oc2ccc(C=O)cc2)cc1 | inconclusive: 8.91 µM [inhibitor, full curve, poor fit] | –
COc1c(Br)cc(F)cc1NC(=O)Cc1coc2cc3c(cc12)CCC3 | inactive | –
CCCCOc1ccc(C2C(C(=O)Nc3ccccc3OC)=C(C)Nc3nnnn32)cc1OC (stereo unspecified) | inconclusive: 2.51 µM [inhibitor, partial curve, poor fit] | –
Cc1ccn2c(Nc3ccc4c(c3)OCCO4)c(-c3ccccc3O)nc2c1 | inconclusive: 35.5 µM [inhibitor, partial curve, poor fit] | –
Cc1ccc(S(=O)(=O)n2nc(C)c(S(=O)(=O)N3CCCCCC3)c2C)cc1C | inconclusive: 39.8 µM [inhibitor, single point] | –
CCCCCn1nc(C(=O)NCC(=O)Nc2ccc(Br)cc2C)c2ccccc2c1=O | inactive | –
COc1ccccc1CNC(=O)c1cc2c(s1)-c1ccc(Cl)cc1SC2 | inconclusive: 14.1 µM [inhibitor, partial curve, poor fit] | –
CCCCSc1nnc(NC(=O)c2cc(=O)c3ccccc3o2)s1 | inactive | –
CN1CCOc2c(C(=O)NCCC(N)=O)cc(-c3ccccc3O)cc21 | active: 31.6 µM | –
COc1ccc(-c2cc3ccc(OCC(=O)OC(C)C)cc3oc2=O)cc1OC | inconclusive: 5.01 µM [inhibitor, full curve, poor fit] | –
COc1cccc(C(=O)N2CCC(N(C)C3CCOCC3)CC2)c1 | inactive | –
Cc1cccc(C(=O)N2CCc3cc(CNC(=O)CSc4ccccc4)ccc32)c1 | inconclusive: 1 µM [inhibitor, partial curve, poor fit] | –
Cc1ncc2n1C(=O)N(C1CCN(Cc3cccn3C)CC1)C2 | inconclusive: 31.6 µM [inhibitor, partial curve, poor fit] | –
COc1ccc(C(C)NC(=O)CN2C(=O)NC3(CCC(C)CC3)C2=O)cc1 (stereo unspecified) | inactive | –
CCOc1ccccc1NC(=O)c1ccc(F)c(S(=O)(=O)N2CCN(c3ccc(F)cc3)CC2)c1 | inconclusive: 25.1 µM [inhibitor, partial curve, poor fit] | –
O=C(O)C[C@@H]1CCN(S(=O)(=O)c2ccccc2)C[C@@H]1CC1=NCCc2cc(F)ccc21 | inconclusive: 39.8 µM [inhibitor, single point] | –

Compound | Potency | activity change, negative = inhibition
COc1ccc(CNC(=O)c2cc3c(N4CCSCC4)nc(C)cn3n2)c(OC)c1 | inconclusive: 15.8 µM [inhibitor, partial curve, poor fit] | –
O=C(COc1ccc(F)cc1)NCC(=O)N1CCN(c2ccccn2)CC1 | active: 25.1 µM | –
COC(=O)C1=CN(Cc2cccs2)C=C(C(=O)OC)C1c1ccc(Cl)c(F)c1 | inactive | –
Cn1ccnc1C(=O)N1CC[C@H]2C(=O)NCCCCCCN(Cc3ccncc3)[C@@H]2C1 | inconclusive: 22.4 µM [inhibitor, single point] | –
CC(C)[S+](=O)([O-])N1CCN(c2cc(Cl)ncn2)C(=O)C1 | inactive | –
COc1ccc(S(=O)(=O)N2CCN(c3nc(C)cc(C)n3)CC2)cc1 | inconclusive: 31.6 µM [inhibitor, partial curve, poor fit] | –
CCOc1ccc(CNC(=O)c2ncoc2-c2ccc(C)s2)cc1OC | inconclusive: 22.4 µM [inhibitor, partial curve, poor fit] | –
C/C(=N\NC(=O)c1cccs1)c1ccc(Cl)cc1 | inactive | –
O=C1CC(c2noc(-c3ccc(-c4ccccc4)cc3)n2)CN1c1ccc(F)cc1 (stereo unspecified) | active: 31.6 µM | –
Cc1ccc(CNC(=O)C(C)n2nc(C)c3sc4ccccc4c3c2=O)cc1 (stereo unspecified) | – | inconclusive: -31.9% [inhibitor]
CN(Cc1ccncn1)C(=O)c1ccccc1C1CCNC1 (stereo unspecified) | inconclusive: 14.1 µM [inhibitor, partial curve] | –
Cc1ccc(CN2CCCN(c3ccc(C(=O)NCc4ccc5c(c4)OCO5)cc3)C2=O)cc1 | inactive | –
Cc1ccc(Cl)cc1NC(=S)N(CCN(C)C)C(C)c1ccccn1 (stereo unspecified) | inconclusive: 31.6 µM [inhibitor, partial curve, poor fit] | –
Cc1noc(C)c1CC(=O)N1CCCC2(C1)Nc1cccnc1NC2=NC1CCCC1 (stereo unspecified) | active: 25.1 µM | –
Cc1ccc(C(=O)NC[C@H]2O[C@@H](CC(=O)N3CCc4ccccc43)[C@H](O)[C@@H]2O)cc1 | inconclusive: 35.5 µM [inhibitor, partial curve, poor fit] | –
Cc1ccc2c(c1)-c1c(c(C(=O)N3CCN(c4cc(C)ccc4C)CC3)nn1C)CS2 | inactive | –
Cc1ccc(CNC(=O)c2ccc(N3CCCC3)c(NC(=O)Nc3ccc(F)c(Cl)c3)c2)cc1 | inconclusive: 14.1 µM [inhibitor, partial curve, poor fit] | –
CCOc1ccc(-c2cc3c(=O)n(CCNC(=O)c4ccccc4)ccn3n2)cc1 | inactive | –
COc1cccc(-n2c(SCc3ccc(F)cc3)nc3c([nH]c4ccccc43)c2=O)c1 | inconclusive: 17.8 µM [inhibitor, partial curve, poor fit] | –
COc1cc(C(=O)N(Cc2ccc(F)cc2)Cc2ccco2)cc(OC)c1OC | – | inconclusive: -41.3% [inhibitor]
CSCC(=O)N[C@H]1CCN2C(=O)c3cc(Br)ccc3NC(=O)[C@@H]2C1 | inconclusive: 44.7 µM [inhibitor, partial curve, poor fit] | –
COC[C@@]12CC[C@@H](N3CCOCC3)C[C@H]1CCN(c1nccc(N)n1)C2 | inconclusive: 15.8 µM [inhibitor, partial curve, poor fit] | –

Compound | Potency | activity change, negative = inhibition
CCN(C(=O)CCc1ccccc1)C1CC(=O)NC1=O (stereo unspecified) | inactive | –
CCC1=C(C(=O)OC)C(c2ccccc2)N2C(CC(=O)NCCCN3CCCC3=O)=CSC2=N1 (stereo unspecified) | inconclusive: 17.8 µM [inhibitor, single point] | –
Cc1ccc(/C=C/C(=O)Nc2nc(-c3cccs3)ns2)cc1 | inconclusive: 17.8 µM [inhibitor, partial curve, poor fit] | –
O=C(NCC1CCOCC1)c1ccc(F)cc1 | inactive | –
Cc1csc2nc(CSc3ccccc3NC(=O)COc3ccccc3Cl)cc(=O)n12 | inactive | –
O=C(Cc1c[nH]c2ncc(-c3ccc(Oc4ccccc4)cc3)cc12)N1CCOCC1 | active: 39.8 µM | –
COCc1cccc(C(=O)NC2CC(c3nnc(CN(C)C)n3C)C2)n1 (stereo unspecified) | inconclusive: 8.91 µM [inhibitor, full curve] | –
CN1c2cc(C(=O)Nc3ccc4c(c3)OCCO4)ccc2C(=O)N2CCCC21 (stereo unspecified) | inconclusive: 35.5 µM [inhibitor, partial curve, poor fit] | –
COc1ccc(-c2nc(Cn3ncc4ccccc4c3=O)co2)cc1 | inactive | –
COCCCNC(=O)c1c(OCC2CC2)cc(=O)n2c1CCOCC2 | inactive | –
O=S(=O)(c1ccc(Cl)cc1)c1nc(-c2ccccc2Br)oc1NCc1ccccc1 | inconclusive: 31.6 µM [inhibitor, partial curve, poor fit] | –
CCCc1noc(-c2ccn3c(CNC(=O)c4cccc(Cl)c4)nnc3c2)n1 | inconclusive: 0.282 µM [inhibitor, full curve, poor fit] | –
O=c1c2sccc2n(Cc2cc(=O)n3ccccc3n2)c(=O)n1-c1cc(F)ccc1F | inconclusive: 28.2 µM [inhibitor, partial curve, poor fit] | –
Cc1nc2c3ccccc3ccc2c2ccccc12 | inconclusive: 31.6 µM [inhibitor, partial curve, poor fit] | –
O=C(OCc1nnnn1-c1ccccc1)C1(c2ccccc2)CCCC1 | inactive | –
O=C(/C=C/c1ccco1)Nc1ccc(F)cc1 | inconclusive: 17.8 µM [inhibitor, partial curve, poor fit] | –
CCOC(=O)C1CCCN(c2nc3c(S(=O)(=O)c4ccc(Br)cc4)nnn3c3ccsc23)C1 (stereo unspecified) | inconclusive: 31.6 µM [inhibitor, partial curve, poor fit] | –
CN1CCN(CCCNC(=O)c2nc(-c3ccc4[nH]ccc4c3)no2)CC1 | inactive | –
COCc1c(C(=O)N/N=C(\C)c2ccc(Cl)s2)nnn1-c1nonc1N | inconclusive: 15.8 µM [inhibitor, partial curve, poor fit] | –
COCCNC(=O)c1cc(C2CC2)nc2onc(C3CCCN3)c12 (stereo unspecified) | active: 56.2 µM | –
COc1cc(OC)cc(C(=O)Nc2cc(-c3nc4ccccc4[nH]3)ccc2C)c1 | inconclusive: 25.1 µM [inhibitor, single point] | –
O=C(NCc1nnc2ccc(-c3ccc(F)cc3)nn12)c1cc(Cl)ccc1F | active: 25.1 µM | –
